# Results published in PubChem BioAssay AID686978 (National Center for Advancing Translational Sciences (NCATS), 2013).
# The campaign covered roughly 420,000 compounds. About 64,000 (15%) were called active. Inconclusive means that the source gave no clear call. Such entries were picked first, then a sample of the others. Calls come from the whole dose curve; as a rule, active = well fitted inhibition curve with a large enough effect; inconclusive = small, poorly fitted or top-dose-only effect; inactive = flat fitted curve, though single readings scatter. No potency is given beside an inconclusive call; the fits are too rough.
# Test: qHTS for Inhibitors of human tyrosyl-DNA phosphodiesterase 1 (TDP1): qHTS in cells in absence of CPT; note: nearly all actives have a fitted effect of over 55% in size
# Conditions: DT40 Tdp1-/- hTDP1 cells, no CPT, ATP luminescence, 48 h; activity change, negative = growth inhibition: at 46.2 µM (top of the series) unless noted
# How it was run: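 Stably hTDP1-transfected Tdp1-null chicken DT40 cells were treated with library compounds minus camptothecin and grown for at least 48 hr at 37 °C, after which cellular ATP was quantified by luminescence.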
# % is set by controls: 0 for no effect and ±100 for the full control effect; potency is the fitted concentration of half-maximal effect; tags give direction and shape of the fitted curve.
Structure (SMILES),Potency,"activity change, negative = growth inhibition"
COc1cc(C)c(CN2CCc3nnc(C(C)NC(=O)c4cc(F)ccc4F)n3CC2)cc1C (configuration not stated),inactive,
Cc1c(N=Cc2c(O)n(C)c(=O)c3ccccc23)c(=O)n(-c2ccccc2)n1C,"inconclusive [inhibitor, single point]",
COc1cnc(-c2ccccn2)nc1N(C)c1ccccc1,active: 0.411 µM,
Cc1ccc(S(=O)(=O)N(CCC#N)C2CCCCC2)c2nsnc12,active: 18.4 µM,
COCc1c(C(=O)NC2CCCC2)cnn1-c1nccc(-c2ccco2)n1,inactive,
Cc1cc(C)c2oc(-c3cccc(NC(=O)c4ccc(F)cc4)c3)nc2c1,"inconclusive [inhibitor, partial curve]",
CCCCCCCCCCCCN1[C@@H](CC(=O)O)c2cc(F)ccc2S1(=O)=O,inactive,
O=S(=O)(NCCOCC(F)(F)C(F)F)c1ccc2oc3ccccc3c2c1,active: 13 µM,
O=C(NCc1ccccc1)C(c1ccc(-c2ccccc2)cc1)N1CCN(c2ccccc2F)CC1 (configuration not stated),"inconclusive [inhibitor, single point]",
C[C@]12CCC(=O)C=C1CC[C@@H]1[C@@H]2[C@@H](O)C[C@@]2(C)[C@H]1CC[C@]2(O)C(=O)COP(=O)(O)O,"inconclusive [inhibitor, single point]",
CCOC(=O)c1cnn(-c2nc(-c3ccccc3)nc3c2COC(C)(C)C3)c1N,"inconclusive [inhibitor, partial curve]",
NC(=O)c1oc2ccc(Cl)cc2c1NC(=O)CN1CCOCC1,inactive,
CN(C)C(CNC(=O)C1CCN(S(=O)(=O)c2cccc(C(F)(F)F)c2)CC1)c1ccccc1 (configuration not stated),inactive,
CCC(CC)c1nnc(NC(=O)c2cc(C(=O)OC)cc([N+](=O)[O-])c2)s1,inactive,
O=C(Nc1ccc(Cl)c([N+](=O)[O-])c1)C(Sc1ccccc1)c1ccccc1 (configuration not stated),"inconclusive [inhibitor, single point]",
COc1cc(CCC(=O)NCc2ccc3c(c2)CCN3C(=O)c2cccc(C)c2)cc(OC)c1OC,"inconclusive [inhibitor, partial curve, poor fit]",
CCOc1ccc(C(=O)Nc2ccc(-c3nc4cc(C(C)C)ccc4o3)cc2)cc1Cl,"inconclusive [inhibitor, single point]",
CCOc1ccc(NC(=O)Nc2cc(C(C)C)c(O)cc2C)cc1,"inconclusive [inhibitor, single point]",
CN(C)CCCn1c2c(c(SCC(=O)Nc3ccc4c(c3)OCO4)nc1=O)CCC2,inactive,
FC(F)(F)Oc1ccc(Nc2nc(N3CCOCC3)nc(N3CCOCC3)n2)cc1,active: 16.4 µM,
O=C(Cn1nc(C(=O)O)c2ccccc2c1=O)Nc1cccc(S(=O)(=O)N2CCCC2)c1,inactive,
COCC(=O)Nc1cc(Cl)ccc1C,inactive,
CSC1=NC2(C[C@H]2c2ccccc2)C(=O)N1C (some centres not stated),inactive,
COc1ccccc1CCC(=O)OCC(=O)N1CCN(S(=O)(=O)c2ccc(C)cc2C)CC1,active: 23.1 µM,

Structure (SMILES),Potency,"activity change, negative = growth inhibition"
C[C@H](CO)N1C[C@H](C)[C@@H](CN(C)C(=O)Nc2ccc(C(F)(F)F)cc2)Oc2c(NC(=O)NC3CCCCC3)cccc2C1=O,"inconclusive [inhibitor, single point]",
Cc1ccc(-n2c(C)cc(C(=O)CSc3nnc4ccccn34)c2C)cc1,"inconclusive [inhibitor, single point]",
CCN1C(=O)c2cccc3c(S(=O)(=O)Nc4ccccn4)ccc1c23,"inconclusive [inhibitor, single point]",
Cc1cc(C)n(CC(C)NCc2c(C(=O)N3CCOCC3)nc3c(C)cccn23)n1 (configuration not stated),inactive,
COc1ccc(-c2cc(C(=O)OCc3ccccn3)c3ccccc3n2)cc1,"inconclusive [inhibitor, single point]",
O=C(c1ccc(NS(=O)(=O)c2cccs2)cc1)N1CCN(c2ccccc2Cl)CC1,"inconclusive [inhibitor, partial curve]",
O=C(CSc1nc2ncc(Cl)cc2[nH]1)Nc1cccc(F)c1,"inconclusive [inhibitor, single point]",
CCOC(=O)c1cccc(NC(=O)CN(c2ccc(OC)cc2)S(=O)(=O)c2c(C)noc2C)c1,"inconclusive [inhibitor, single point]",
O=C(Nc1nnc(SCc2c(Cl)cccc2Cl)s1)c1cccc([N+](=O)[O-])c1,"inconclusive [inhibitor, single point]",
COc1cc(/C=C2/NC(=O)NC2=O)cc(Br)c1OCc1ccccc1,,inconclusive: -33.1% [inhibitor]
COc1cc(C(=O)OCC(=O)NCc2ccc(F)cc2)ccc1OCC(C)C,active: 16.4 µM,
O=C(NCc1ccccn1)Nc1ccc(F)c(Cl)c1,inactive,
Nc1nc(C23CC4CC(CC(Cl)(C4)C2)C3)cs1,,inconclusive: -30.7% [inhibitor]
Fc1cccc(NCc2cccn2-c2nnc(N3CCOCC3)s2)c1,,inconclusive: -33.6% [inhibitor]
Cc1cnc(C)c(Nc2nc(C(N)Cc3ccccc3)cs2)n1 (configuration not stated),"inconclusive [inhibitor, single point]",
CC/C=C/C(=O)N1CC2(CC(c3cccc(NC(=O)CC)c3)=NO2)C[C@H]1C(N)=O (some centres not stated),inactive,
C=CCn1c(=O)c(CCC(=O)Nc2ccc(N3CCOCC3)cc2)nc2cc(C(F)(F)F)ccc21,inactive,
Cc1ccccc1Cn1c(C)nc2ccc([N+](=O)[O-])cc2c1=O,inactive,
CCOC(=O)CN1C(=O)CSc2ccc(S(=O)(=O)N3CCOCC3)cc21,inactive,
COc1ccc(S(=O)(=O)Nc2ccc3c(c2)CCC3)cc1,"inconclusive [inhibitor, single point]",
COc1ccccc1Cc1c(-c2ccco2)nc2ccc(Br)cn12,active: 20.6 µM,
CCOCCCNC(=O)NC(=O)CN1CCN(S(=O)(=O)c2ccc3c(c2)OCCO3)CC1,inactive,
Cc1ccc(S(=O)(=O)c2cc3c(=O)n4ccccc4nc3n(CC3CCCO3)c2=N)cc1C (configuration not stated),,inconclusive: -38.4% [inhibitor]
